Structures are written as SMILES. The campaign covered roughly 310,000 compounds. About 14,000 (4.5%) showed an effect of 50% or more. Effects have a minus sign here. Some of the results follow.
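Also: peak tail current of the secondary pulse compared with the same well before compound.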

For this assay, the target named is human ether-à-go-go-related gene (hERG) potassium channel (human, UniProt Q12809). Description: primary screen, population patch clamp on CHO cells stably expressing hERG.
Sequence of human ether-à-go-go-related gene (hERG) potassium channel (Q12809 whole entry, looked up): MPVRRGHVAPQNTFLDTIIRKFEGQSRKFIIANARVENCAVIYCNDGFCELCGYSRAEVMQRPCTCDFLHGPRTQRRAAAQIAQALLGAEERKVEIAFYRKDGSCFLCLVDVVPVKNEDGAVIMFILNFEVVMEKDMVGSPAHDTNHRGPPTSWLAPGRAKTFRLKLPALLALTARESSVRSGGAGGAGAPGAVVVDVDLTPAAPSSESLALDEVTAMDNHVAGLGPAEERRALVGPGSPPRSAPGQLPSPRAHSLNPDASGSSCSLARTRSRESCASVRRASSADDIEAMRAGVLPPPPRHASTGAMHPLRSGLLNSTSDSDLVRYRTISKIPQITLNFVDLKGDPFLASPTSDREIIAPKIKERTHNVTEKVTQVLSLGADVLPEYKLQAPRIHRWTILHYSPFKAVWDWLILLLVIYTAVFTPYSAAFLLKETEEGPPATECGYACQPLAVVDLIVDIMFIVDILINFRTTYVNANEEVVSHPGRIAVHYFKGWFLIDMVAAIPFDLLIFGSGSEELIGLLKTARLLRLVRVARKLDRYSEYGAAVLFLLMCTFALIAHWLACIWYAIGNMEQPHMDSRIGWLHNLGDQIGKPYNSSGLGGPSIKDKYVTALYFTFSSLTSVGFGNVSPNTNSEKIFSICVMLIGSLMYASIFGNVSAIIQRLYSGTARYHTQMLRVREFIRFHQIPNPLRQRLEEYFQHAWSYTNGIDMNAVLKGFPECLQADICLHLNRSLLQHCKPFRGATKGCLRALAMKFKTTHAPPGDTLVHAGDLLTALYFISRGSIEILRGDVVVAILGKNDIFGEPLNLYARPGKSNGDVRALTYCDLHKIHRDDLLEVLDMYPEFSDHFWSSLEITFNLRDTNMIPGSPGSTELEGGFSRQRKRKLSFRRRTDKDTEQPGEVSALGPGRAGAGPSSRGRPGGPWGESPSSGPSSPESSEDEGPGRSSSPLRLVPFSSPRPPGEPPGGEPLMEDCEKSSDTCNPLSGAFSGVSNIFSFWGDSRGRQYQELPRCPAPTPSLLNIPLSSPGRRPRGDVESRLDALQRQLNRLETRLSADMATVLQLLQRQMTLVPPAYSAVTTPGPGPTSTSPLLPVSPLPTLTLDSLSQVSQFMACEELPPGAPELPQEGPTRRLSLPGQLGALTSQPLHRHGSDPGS
In the case of `O=S(=O)(Cc1cc(Sc2ccccc2)nc(-c2ccccc2)n1)c1ccccc1`, the “hERG current change (%, negative = inhibition) at 10uM” value was -0.23%.

Consider `CCOC(=O)N1CCN(C(c2ccc(C)cc2)c2sc3nc(C)nn3c2O)CC1` (stereo not drawn), for which the “hERG current change (%, negative = inhibition) at 10uM” value is recorded as -17%.

Take `O=C(C1=C[C@H](c2ccccc2)C[C@H](OCc2ccc(CO)cc2)O1)N1CCN(Cc2ccccc2)CC1`: the “hERG current change (%, negative = inhibition) at 10uM” value is -41.2%.

With `O=c1c(/C=N/O)c(Nc2ccccc2)nc2ccccn12`, the “hERG current change (%, negative = inhibition) at 10uM” value was -13.5%.

`CN(CC(=O)Nc1cc(Cl)cc(Cl)c1)Cc1cccs1`: the “hERG current change (%, negative = inhibition) at 10uM” value is 9.73%.

As to `CCCCc1nc(N)c(C#N)c(-c2ccco2)c1CCC`, the “hERG current change (%, negative = inhibition) at 10uM” value is -0.797%.

Consider `Cc1ccc(/C=N/NC(=O)c2cc(C)oc2C)o1`, for which the “hERG current change (%, negative = inhibition) at 10uM” value came out at 17.8%.

`CCN(CC)C(=O)CSc1nnc(-c2ccc(S(=O)(=O)N3CCCC3)cc2)o1`: the “hERG current change (%, negative = inhibition) at 10uM” value is recorded as -17.4%.

For the molecule `COc1ccc(-c2cc(C(=O)N3CCCC3)c3ccccc3n2)cc1`, the “hERG current change (%, negative = inhibition) at 10uM” value is -2.31%.

For `Cc1ccc(S(=O)(=O)N2CCC(C(=O)OC(C)C(=O)NC3CCCCC3C)CC2)cc1` (stereo not drawn), the “hERG current change (%, negative = inhibition) at 10uM” value is -18%.

`C/C(=N\O)c1ccc(N2C(=O)C3CC=C(Cl)CC3C2=O)cc1` (stereo not drawn): the “hERG current change (%, negative = inhibition) at 10uM” value was -9.63%.

For the molecule `O=C(c1c[nH]c2ccccc12)C(O)C(c1ccccc1)N1CCOCC1` (stereo not drawn), the “hERG current change (%, negative = inhibition) at 10uM” value is reported as -0.703%.

For the molecule `CC(NC(=O)C1CCN(C(=O)c2ccc(F)cc2)CC1)c1ccc(-n2ccnc2)cc1` (stereo not drawn), the “hERG current change (%, negative = inhibition) at 10uM” value is reported as -64.7%.

As for `Cl.NCCCC[C@H](N)c1nnc([C@H](CC(=O)O)NC(=O)C2CCNCC2)o1`, the “hERG current change (%, negative = inhibition) at 10uM” value is listed as -7.24%.

In the case of `COc1ccccc1NS(=O)(=O)c1ccc2ccccc2c1`, the “hERG current change (%, negative = inhibition) at 10uM” value worked out at 0.727%.

With `CCCSc1nnc(Cn2c(=O)sc3ccccc32)n1-c1ccccc1`, the “hERG current change (%, negative = inhibition) at 10uM” value is listed as -13.6%.

`COCCNS(=O)(=O)c1cc(OC)c(C)cc1C`: the “hERG current change (%, negative = inhibition) at 10uM” value stood at 1.55%.

With `CC1(C)CC(=O)C=C(c2cccc(O)c2)C1=O`, the “hERG current change (%, negative = inhibition) at 10uM” value is on record as -1.58%.

Take `COC(=O)C(C(=O)N1CCN(C)CC1)C1CCCCCC1` (stereo not drawn): the “hERG current change (%, negative = inhibition) at 10uM” value is listed as 13.2%.

On to `N#CC(C(=O)NCc1ccco1)c1nc2ccccc2nc1N1CCOCC1` (stereo not drawn), for which the “hERG current change (%, negative = inhibition) at 10uM” value is on record as -14.3%.

In the case of `COC(=O)c1ccc(OCCOCCOc2cccc3ccc(C)nc23)cc1`, the “hERG current change (%, negative = inhibition) at 10uM” value is on record as -3.06%.

Take `COc1cccc(-c2nc(CS(=O)(=O)CC(=O)Nc3ccccc3Cl)c(C)o2)c1`: the “hERG current change (%, negative = inhibition) at 10uM” value is recorded as 7.71%.

Consider `CN(Cc1ccccc1)C(=C(Cl)Cl)/C(=C1/NCCN1Cc1ccc(Cl)nc1)[N+](=O)[O-]`, for which the “hERG current change (%, negative = inhibition) at 10uM” value is listed as -42.7%.

For the molecule `O=C(CNc1cccc2ccccc12)N/N=C/c1ccc([N+](=O)[O-])cc1`, the “hERG current change (%, negative = inhibition) at 10uM” value is recorded as 11%.

As for `O=c1[nH]c2ccc(S(=O)(=O)N3CCCCC3)cc2s1`, the “hERG current change (%, negative = inhibition) at 10uM” value is -4.64%.

Take `NC(=O)COc1ccccc1`: the “hERG current change (%, negative = inhibition) at 10uM” value stood at 10.7%.

Turning to `COC(=O)c1ccc(-c2ccc(F)cc2)nc1C`, the “hERG current change (%, negative = inhibition) at 10uM” value was 2.9%.

Turning to `CC(C)(C)N(Cc1ccccc1)C(=O)CCc1ccccc1`, the “hERG current change (%, negative = inhibition) at 10uM” value is reported as 11.8%.

In the case of `CC(C)[C@H]1CC[C@@H](C)C(C(=O)c2ccccc2)C1=O` (stereo partly drawn), the “hERG current change (%, negative = inhibition) at 10uM” value is given as -12%.

As to `Cc1cccc(C(C)C)c1NC(=O)C1CCN(S(=O)(=O)c2ccccc2)CC1`, the “hERG current change (%, negative = inhibition) at 10uM” value is 5.19%.

In the case of `N#Cc1ccc(OCC(=O)N2CCN(S(=O)(=O)c3cccs3)CC2)cc1`, the “hERG current change (%, negative = inhibition) at 10uM” value is given as -72.1%.

`Cc1cc(C(=O)NCC(=O)OC(C(=O)Nc2cc(C(F)(F)F)ccc2Cl)c2ccccc2)ccc1[N+](=O)[O-]` (stereo not drawn): the “hERG current change (%, negative = inhibition) at 10uM” value was -6.65%.

Regarding `CC(C)c1cc(C(=O)OCC(=O)N2CCN(C(=O)c3ccco3)CC2)c(O)c(C(C)C)c1`, the “hERG current change (%, negative = inhibition) at 10uM” value is 0.678%.

For `CC(Cc1ccccc1)NC(=O)/C=C/C(=O)O` (stereo not drawn), the “hERG current change (%, negative = inhibition) at 10uM” value is listed as 1.42%.

Regarding `COCCN(C(=O)COC(=O)C1=COCCO1)c1c(N)n(Cc2ccccc2)c(=O)[nH]c1=O`, the “hERG current change (%, negative = inhibition) at 10uM” value was found to be 31.1%.

As for `Nc1nnc(SC2CCCC2)s1`, the “hERG current change (%, negative = inhibition) at 10uM” value was -0.499%.

For the molecule `Cn1c(=O)c2c(n(C)c1=O)=NC1(CCCCC1)ON=2`, the “hERG current change (%, negative = inhibition) at 10uM” value is recorded as -15.4%.

For `Cc1ccc(S(=O)(=O)NC2CCSC2=O)cc1C` (stereo not drawn), the “hERG current change (%, negative = inhibition) at 10uM” value was 2.32%.

For `Cc1ccc(S(=O)(=O)Nc2cc(=O)[nH]c(SCC(=O)Nc3ccccc3C(F)(F)F)n2)cc1`, the “hERG current change (%, negative = inhibition) at 10uM” value came out at 10.7%.

As for `O=C(CS(=O)(=O)c1ccccc1)Nc1nccs1`, the “hERG current change (%, negative = inhibition) at 10uM” value turned out to be 17.9%.

Consider `O=S(=O)(NC1CCCCC1)OCC(Cl)(Cl)Cl`, for which the “hERG current change (%, negative = inhibition) at 10uM” value was -28.1%.

Regarding `O=S1(=O)CC(O)C(Nc2ccc(Cl)cc2)C1` (stereo not drawn), the “hERG current change (%, negative = inhibition) at 10uM” value was found to be 7.96%.

Turning to `O=C(CSc1ncnc2c1nnn2Cc1ccccc1)NC1CCCC1`, the “hERG current change (%, negative = inhibition) at 10uM” value was determined as 10.4%.

In the case of `C=CCNC1=C(Cl)C(=O)N(c2ccccc2Cl)C1=O`, the “hERG current change (%, negative = inhibition) at 10uM” value is reported as -14.8%.

`O=C(Cn1ncn2c(cc3cc(F)ccc32)c1=O)N1CCC2(CC1)OCCO2`: the “hERG current change (%, negative = inhibition) at 10uM” value is listed as 15.3%.

For the origin of these results see publication PMC4336329 (PLoS ONE, 2015).
